The values below come from the supplement of paper PMC4604168 (melanoma cell lines).

Each structure is given as a SMILES string. The list shows a part of the results. Repeats are few or missing, and single values can be far off.
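Also: cell number obtained by counting DAPI-stained nuclei in high-throughput microscope images with image analysis software, screen run in 1,536-well plates.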

In this assay the test system is LOXIMVI. Nature of the assay: cell count relative to DMSO control; melanoma cells; higher = more viable cells. The settings on record: library dose: low library concentration; 72 h.
In turn, `Clc1ccc(Nc2nnc(Cc3ccncc3)c3ccccc23)cc1` [vatalanib] + COCC[n+]1c2c(n(Cc3cnccn3)c1C)C(=O)c1ccccc1C2=O [YM155] (first compound 2 µM, partner dose 0.0004 µM) had a cell count of 99.5%.
Consider `OCc1c[nH]c2ccccc12` [Indole-3-carbinol] + COc1ccc(Cl)c(Nc2nc3ccccc3nc2NS(=O)(=O)c2cccc(NC(=O)C(C)(C)N)c2)c1 [XL147] (first compound 0.8 µM, partner dose 0.8 µM), for which the cell count turned out to be 90.4%.
In the case of `Nc1cccc2c1CN(C1CCC(=O)NC1=O)C2=O` (stereo not drawn) [lenalidomide] + C[C@]1(c2nc3c(C(N)=O)cccc3[nH]2)CCCN1 [Veliparib] (first compound 1 µM, partner dose 1.4 µM) it was 75.6%; in that of `COCC[n+]1c2c(n(Cc3cnccn3)c1C)C(=O)c1ccccc1C2=O` + O=C(CCCCCCC(=O)Nc1ccccc1)NO [vorinostat] (first compound 0.0004 µM, partner dose 0.08 µM), 91.5%; in that of `OCc1c[nH]c2ccccc12` [Indole-3-carbinol] + Cn1c(Nc2ccc(C(F)(F)F)cc2)nc2cc(Oc3ccnc(-c4ncc(C(F)(F)F)[nH]4)c3)ccc21 [CHIR265] (first compound 0.8 µM, partner dose 0.08 µM), 97.9%.
To `COCC[n+]1c2c(n(Cc3cnccn3)c1C)C(=O)c1ccccc1C2=O` + Nc1cccc2c1CN(C1CCC(=O)NC1=O)C2=O [lenalidomide] (first compound 0.0004 µM, partner dose 1 µM) belongs 85.5%.
In the case of `COCC[n+]1c2c(n(Cc3cnccn3)c1C)C(=O)c1ccccc1C2=O` + Cn1nnc2c(C(N)=O)ncn2c1=O [temozolomide] (first compound 0.0004 µM, partner dose 2 µM) it was 93.2%.
In the case of `Clc1ccc(Nc2nnc(Cc3ccncc3)c3ccccc23)cc1` [vatalanib] + COc1ccc(Cl)c(Nc2nc3ccccc3nc2NS(=O)(=O)c2cccc(NC(=O)C(C)(C)N)c2)c1 [XL147] (first compound 2 µM, partner dose 0.8 µM), the cell count amounted to 112%.
To `Cn1c(Nc2ccc(C(F)(F)F)cc2)nc2cc(Oc3ccnc(-c4ncc(C(F)(F)F)[nH]4)c3)ccc21` + C[C@@H]1CCN(C(=O)CC#N)C[C@@H]1N(C)c1ncnc2[nH]ccc12 [CP690550] (first compound 0.08 µM, partner dose 1 µM) belongs 95%.
`Clc1ccc(Nc2nnc(Cc3ccncc3)c3ccccc23)cc1` [vatalanib] + Cc1nc(Nc2ncc(C(=O)Nc3c(C)cccc3Cl)s2)cc(N2CCN(CCO)CC2)n1 [dasatanib] (first compound 2 µM, partner dose 0.004 µM) displayed a cell count of 46.6%.
In the case of `C#Cc1cccc(Nc2ncnc3cc(OCCOC)c(OCCOC)cc23)c1` [erlotinib] + Nc1cccc2c1CN(C1CCC(=O)NC1=O)C2=O [lenalidomide] (first compound 0.8 µM, partner dose 1 µM) it was 114%; in that of `Clc1ccc(Nc2nnc(Cc3ccncc3)c3ccccc23)cc1` [vatalanib] + Cn1nnc2c(C(N)=O)ncn2c1=O [temozolomide] (first compound 2 µM, partner dose 2 µM), 79.6%.
In the case of `Clc1ccc(Nc2nnc(Cc3ccncc3)c3ccccc23)cc1` [vatalanib] + C[C@]1(c2nc3c(C(N)=O)cccc3[nH]2)CCCN1 [Veliparib] (first compound 2 µM, partner dose 1.4 µM) it was 57.2%; in that of `C#Cc1cccc(Nc2ncnc3cc(OCCOC)c(OCCOC)cc23)c1` [erlotinib] + C[C@]1(c2nc3c(C(N)=O)cccc3[nH]2)CCCN1 [Veliparib] (first compound 0.8 µM, partner dose 1.4 µM), 127%.
To `OCc1c[nH]c2ccccc12` [Indole-3-carbinol] + Cn1nnc2c(C(N)=O)ncn2c1=O [temozolomide] (first compound 0.8 µM, partner dose 2 µM) belongs 61.4%.
Compound `Cn1c(Nc2ccc(C(F)(F)F)cc2)nc2cc(Oc3ccnc(-c4ncc(C(F)(F)F)[nH]4)c3)ccc21` + Nc1cccc2c1CN(C1CCC(=O)NC1=O)C2=O [lenalidomide] (first compound 0.08 µM, partner dose 1 µM) showed a cell count of 81.9%.
To `Nc1cccc2c1CN(C1CCC(=O)NC1=O)C2=O` (stereo not drawn) [lenalidomide] + Cn1nnc2c(C(N)=O)ncn2c1=O [temozolomide] (first compound 1 µM, partner dose 2 µM) belongs 89.9%; to `O=C(CCCCCCC(=O)Nc1ccccc1)NO` [vorinostat] + COc1cc(Nc2ncc(F)c(Nc3ccc4c(n3)NC(=O)C(C)(C)O4)n2)cc(OC)c1OC [Tamatinib] (first compound 0.08 µM, partner dose 0.4 µM), 41.8%.
To `Cn1c(Nc2ccc(C(F)(F)F)cc2)nc2cc(Oc3ccnc(-c4ncc(C(F)(F)F)[nH]4)c3)ccc21` + Cn1cncc1[C@@](N)(c1ccc(Cl)cc1)c1ccc2c(c1)c(-c1cccc(Cl)c1)cc(=O)n2C [tipifarnib] (first compound 0.08 µM, partner dose 0.01 µM) belongs 62.2%; to `C#Cc1cccc(Nc2ncnc3cc(OCCOC)c(OCCOC)cc23)c1` [erlotinib] + Cn1c(Nc2ccc(C(F)(F)F)cc2)nc2cc(Oc3ccnc(-c4ncc(C(F)(F)F)[nH]4)c3)ccc21 [CHIR265] (first compound 0.8 µM, partner dose 0.08 µM), 90.1%; to `Clc1ccc(Nc2nnc(Cc3ccncc3)c3ccccc23)cc1` [vatalanib] + C#Cc1cccc(Nc2ncnc3cc(OCCOC)c(OCCOC)cc23)c1 [erlotinib] (first compound 2 µM, partner dose 0.8 µM), 68.1%.
In turn, `OCc1c[nH]c2ccccc12` [Indole-3-carbinol] + Nc1cccc2c1CN(C1CCC(=O)NC1=O)C2=O [lenalidomide] (first compound 0.8 µM, partner dose 1 µM) returned a cell count of 83.5%.
To `Clc1ccc(Nc2nnc(Cc3ccncc3)c3ccccc23)cc1` [vatalanib] + Cn1c(Nc2ccc(C(F)(F)F)cc2)nc2cc(Oc3ccnc(-c4ncc(C(F)(F)F)[nH]4)c3)ccc21 [CHIR265] (first compound 2 µM, partner dose 0.08 µM) belongs 98.2%.
In the case of `Cn1c(Nc2ccc(C(F)(F)F)cc2)nc2cc(Oc3ccnc(-c4ncc(C(F)(F)F)[nH]4)c3)ccc21` + C[C@]1(c2nc3c(C(N)=O)cccc3[nH]2)CCCN1 [Veliparib] (first compound 0.08 µM, partner dose 1.4 µM) it was 97.7%; in that of `OCc1c[nH]c2ccccc12` [Indole-3-carbinol] + Cc1nc(Nc2ncc(C(=O)Nc3c(C)cccc3Cl)s2)cc(N2CCN(CCO)CC2)n1 [dasatanib] (first compound 0.8 µM, partner dose 0.004 µM), 40.5%; in that of `Cn1c(Nc2ccc(C(F)(F)F)cc2)nc2cc(Oc3ccnc(-c4ncc(C(F)(F)F)[nH]4)c3)ccc21` + COCC[n+]1c2c(n(Cc3cnccn3)c1C)C(=O)c1ccccc1C2=O [YM155] (first compound 0.08 µM, partner dose 0.0004 µM), 39.4%.
In the case of `Clc1ccc(Nc2nnc(Cc3ccncc3)c3ccccc23)cc1` [vatalanib] + C=CCn1c(=O)c2cnc(Nc3ccc(N4CCN(C)CC4)cc3)nc2n1-c1cccc(C(C)(C)O)n1 [MK1775] (first compound 2 µM, partner dose 0.02 µM) it was 82.9%; in that of `Clc1ccc(Nc2nnc(Cc3ccncc3)c3ccccc23)cc1` [vatalanib] + Nc1cccc2c1CN(C1CCC(=O)NC1=O)C2=O [lenalidomide] (first compound 2 µM, partner dose 1 µM), 97.4%.
